In the supplement of paper PMC11417369:
The other results are listed elsewhere or left out.

The sequences below were run on PfHDP1 homeodomain (GST-tagged) (assay: gcPBM binding intensity (ln(normalized median fluorescence intensity)); higher = stronger DNA binding).
Procedure, shortened: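 GST-tagged P. falciparum DNA-binding domains, expressed in E. coli (about 25 μg on average), were applied for 1 h to an Agilent 4 × 180k array of primer-extended double-stranded 36-bp intergenic genomic probes plus negative controls. The binding buffer was 1× PBS with 1% milk, 0.2 mg/ml BSA, 0.5% salmon testes DNA and 0.03% Triton X-100. Bound protein was detected with Alexa488 anti-GST antibody and scanned at 488 nm. Binding intensity is the highest Masliner-normalised natural-log median intensity across replicate spots of either probe orientation.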

| Sequence | gcPBM binding intensity (ln) |
| --- | --- |
| CTCCTCATATAATTTTGTACATAAAAAATTACCATT [XGTACX_site3879] | 6.8 |
| TGTTATATATATTGACTTAATAAATAAATAAATATA [GTGCAC_negctrl_site590] | 5.89 |
| ATTAATATATAACGTGCACACACACCGTTACGTATG [CACACA_site8543] | 9.1 |
| ATATATTTTAAAGAAAGTACCCACCGTTTGAAGTCA [XGTACX_site2273] | 6.73 |
| TCTTATTTTATAAATATAAATATATATATATATATA [GTGCAC_negctrl_site479] | 9.14 |
| TATTTTATAATTTACCGTACATTAATTGTATTATTA [XGTACX_site5722] | 6.35 |
| ATATATTTTATATGTGTGCACTATATATATATATAT | 10.8 |
| AAAAAAAAAAAAAAAAAAAAAAATATATATATATTT [GTGCAC_negctrl_site502] | 7.07 |
| CCCCTTAATTTATTTTGTACATATAATTTTTTTTTT [XGTACX_site3270] | 6.52 |
| ATTAATCAATATAGGCGTACAAAAAAAATAAATTAT [XGTACX_site1513] | 6.92 |
| CTTGTATATAAACACACACACACTTTCTTTTTTTAA [CACACA_site8602] | 6.81 |
| ACAAAAATAAGCAAATGTACATATGTATAATATATT [XGTACX_site2492] | 6.77 |
| GTATTTTTAAATGACACACACATATATAAATATGTA [CACACA_site6880] | 6.42 |
| TATAAACATAAATATACACACAAACATATAGGTATT [CACACA_site6690] | 6.59 |
| ATATAATAATATTAAAGTACATGCATATATATTTAT [XGTACX_site7422] | 6.46 |
| TAATATAACAAAAAAATAAAATAAAATAAAAAATAA [CACACA_negctrl_site109] | 6.39 |
| ACTATTTAAATGCAAAGTACTTTGATAATAAACAAT [XGTACX_site2608] | 7.25 |
| CATAATATCTCTTTGTGTACATATAGTTATTATTAT [XGTACX_site7688] | 6.56 |
| ATTTTTTAAAAAAACATACACACAAAAAAAAAAAAA [CACACA_site3936] | 6.29 |
| ATTATTATATATAAAACACACAATTTTGTTTTCACA [CACACA_site3965] | 6.59 |
| CTGGAGTTAAAAATGTGTACCTAAAAAATTTTGTTC [XGTACX_site5554] | 6.38 |
| GTATAAAAAAATATATGTACTTATTTACATATATAT [XGTACX_site4744] | 6.2 |

| Sequence | gcPBM binding intensity (ln) |
| --- | --- |
| TGAAATGATATATAAACACACATATATATATATATA [CACACA_site3511] | 9.38 |
| ATTTTTAATGTGATCACACATAAATATTATATATAT [CACACA_site5641] | 6.78 |
| ATATTATAATTGAAGGTGCAAAATGTAATATAGATA [GTGCAC_site9661] | 9.76 |
| ATTCATTTTTTGGGGGGTACACCCTTTTAAACATTT [XGTACX_site4797] | 7.88 |
| ATTATTATTTAAAAAAGTACATTGAAGTTCATAATA [XGTACX_site3575] | 6.43 |
| ATCCACAAAATAGGATGTACATATAAAATAAATAAA [XGTACX_site5362] | 6.48 |
| TATGGAATAATACGCGTACACACATATATATATTAA [CACACA_site132] | 6.75 |
| TTATAAATTTAAAGTAGTACTATACTACTATTTTAT [XGTACX_site3038] | 6.09 |
| CATTTTTTATAATAATGTACATGTATTAAAAAAAAA [XGTACX_site6390] | 6.2 |
| TTTATAAGAATTACTAGTACATATAAGGAATTATAT [XGTACX_site3953] | 6.08 |
| GCACACACAAAAAAAGCATGCATACTAGCTATTTTT [TGCATGCA_site18] | 6.35 |
| TATTTTTTTCATAACAGTACAATAATATATATTTTT [XGTACX_site5739] | 6.6 |
| TTTTTTACAAATGATATCATTTCTTTAAATATTAAA [TGCATGCA_negctrl_site279] | 6.76 |
| CTATAAATGAATGTTTGTACTTAATAATAAAAGAAA [XGTACX_site3170] | 6.61 |
| AATGAAATAAATAAGGGTACACATAAATATATATAT [XGTACX_site7006] | 8.42 |
| AAAAAACACCCATACACACACACACCGATATATATA [CACACA_site5808] | 6.94 |
| TATTCGTGCAATAATAGTACACTTATAAATTATTCA [XGTACX_site8993] | 10.3 |
| AATCAAAAAAAATGTTGTACGCCTAATTATAATTAA [XGTACX_site8906] | 6.59 |
| AATGGGGAAGGTTCTACACACAACGCAAATGCCTTA [CACACA_site2758] | 6.41 |
| AAATTATTATGTATTTGTACACATAAGAATATAAAA [XGTACX_site6841] | 6.32 |
| TATAAATAATGTTAAACACACATACCGATATATAAT [CACACA_site5499] | 6.64 |
| TCAGTTAATGTATATGTACACACGGTGAGTATATAT [CACACA_site3346] | 6.74 |

| Sequence | gcPBM binding intensity (ln) |
| --- | --- |
| AGAGAAAGAAAGAAATGTACAAATACCTACACACAT [XGTACX_site3140] | 6.96 |
| TTTTTTATATATGTGTGTGTGTGTGTGTCAAGTTTA [GTGCAC_negctrl_site460] | 7.06 |
| ATAACATAATAGCAACAATTTATTTCCTCTATAACA [CACACA_negctrl_site243] | 6.37 |
| TTTGGGATATTTACAGTGCAAAGATATTTTTATAAT | 8.48 |
| ATATTTTTGTTCAGGAGTACAGTTCAAGATGAAAAT [XGTACX_site4178] | 6.52 |
| ATTCTATATATATAAACACACAAATATTTTTATATA [CACACA_site1677] | 6.58 |
| TTTTAGTGAAATGAGTGTACATTATATATTTTTTTT [XGTACX_site4892] | 6.23 |
| ATATAAGGAAGGGATGCACACAAAAGGGTACATAAG [CACACA_site9328] | 7.48 |
| AAGACTAATCTAGGTAGTACTTATATATCTTTATTT [XGTACX_site4572] | 6.08 |
| TATATATCAAAAATATGTACACAGAAATATATATTA [XGTACX_site6997] | 6.96 |
| ACATATAAAATATATACACACATATAAATACATTAA [CACACA_site3867] | 6.24 |
| TTGCAATAATGTTGCACACTAAATAGTCATATATAA [CACACA_site263] | 9.77 |
| ATATAATATTACAAATGTACTTTAAAAAATTAGGAG [XGTACX_site3897] | 6.59 |
| TTGTTTCAAGAAAAAATCGAAAAACATAGAAAAAAA [XGTACX_negctrl_site615] | 6.32 |
| TCATATTAATTTGATAGTACATATACTTTGAAGTCC [XGTACX_site3767] | 6.51 |
| TGTATATAAACAAGGGGTACAATAATATAAATAAAT [XGTACX_site8675] | 6.61 |
| TCACATACATTACTTACACACCATATTAATATATAC [CACACA_site8047] | 7.11 |
| AATAAAAAATAAAAAATAAACAGTATACATATATAT [GTGCAC_negctrl_site31] | 6.76 |
| AAAAATATAATATATCTAAAATTTTTCATTAAATAT [XGTACX_negctrl_site274] | 6.16 |
| TTATATATAGAATAAACATGCATTTGTATATGAATA [TGCATGCA_site604] | 6.61 |
| ATAAATAAAAATACATGAACAGGTCAGGTTATTTTT [CACACA_negctrl_site1007] | 6.14 |
| ACATATATATATTTATATATATATATATATATGTGA [CACACA_negctrl_site613] | 6.71 |

| Sequence | gcPBM binding intensity (ln) |
| --- | --- |
| TTTTTTTTTTTTTTTACACACTATAGGGAAAAAAAA [CACACA_site1916] | 6.48 |
| TTTATTAGATAACGATAAACGAAAAAAAAAAAATAA [GTGCAC_negctrl_site81] | 6.37 |
| ATAATATAAATAAAGCGTACTTAATTTTATATATAT [XGTACX_site4626] | 6.17 |
| TGTTGTAACAAAAGTACACACACATTTCTATAAATT [CACACA_site8894] | 6.29 |
| ATTACATAACAATATACACACTATTGATTAAAGAGA [CACACA_site5602] | 6.74 |
| AACAGACATAGACACACACACATATATTTATTTATA [CACACA_site7571] | 6.93 |
| ATGCAAATAATATAAAGTACACAACATCGCCCAAAG [XGTACX_site1825] | 7 |
| TTTTTTAAATTTTGAATTATAACTACATTAAAGAAA [GTGCAC_negctrl_site279] | 6.07 |
| TATTTAAAAGTATATACACACAACTGGAATGAAAAG [CACACA_site4126] | 7.33 |
| CATTATGTCATAAATGCACACATATATATATACATA [CACACA_site8454] | 9.98 |
| AAAATTAAAAAAATAAATACATTATATAATTAAAAA [CACACA_negctrl_site1426] | 6.35 |
| TATGTATGCCCTAATGCATGTGAACAAAATAATATA [TGCATGCA_site407] | 7 |
| ATTATAACACCTCCCCCCCTTTTTTTATGAAGACCA [CACACA_negctrl_site1043] | 8.51 |
| TATTTTAATCGTAAGTGTACTCTTTTAAGTATATGT [XGTACX_site8591] | 6.27 |
| TTCTTAAAATATGAAAGTACATAGGCATTATATATT [XGTACX_site8400] | 6.13 |
| ATAAACTGAGTGGTTACACACAAAACCAATAACTTT [CACACA_site7601] | 6.15 |
| ATATAGACACACACATGTACATATGCCAACGTGATA [XGTACX_site3828] | 6.68 |
| ACTATATAATATAATATATTATAATATATTATATTA [GTGCAC_negctrl_site140] | 6.58 |
| TATATATATATATATTGTACTTATGTTTATATTCAT [XGTACX_site6258] | 9.2 |
| TTCTTTAAAATATTATGTACACATTGCGAACAGTTT [XGTACX_site5418] | 7.02 |
| AGTTTATTTATATACACACACATATAAATATTATAG [CACACA_site6522] | 6.91 |
| ATATATATTTATGTATCACACACAAAAAAAAAAAAT [CACACA_site7973] | 6.58 |
